# Source: the supplement of paper PMC3334620
# Whole data set: some 33,000 sequences, median “E-score (-0.5 to 0.5)” near -0.035, cut for the highest 2% near 0.34. The list shows a part of the results.
# Target: T1, Mot3 (UniProt P54785)
# T1 sequence: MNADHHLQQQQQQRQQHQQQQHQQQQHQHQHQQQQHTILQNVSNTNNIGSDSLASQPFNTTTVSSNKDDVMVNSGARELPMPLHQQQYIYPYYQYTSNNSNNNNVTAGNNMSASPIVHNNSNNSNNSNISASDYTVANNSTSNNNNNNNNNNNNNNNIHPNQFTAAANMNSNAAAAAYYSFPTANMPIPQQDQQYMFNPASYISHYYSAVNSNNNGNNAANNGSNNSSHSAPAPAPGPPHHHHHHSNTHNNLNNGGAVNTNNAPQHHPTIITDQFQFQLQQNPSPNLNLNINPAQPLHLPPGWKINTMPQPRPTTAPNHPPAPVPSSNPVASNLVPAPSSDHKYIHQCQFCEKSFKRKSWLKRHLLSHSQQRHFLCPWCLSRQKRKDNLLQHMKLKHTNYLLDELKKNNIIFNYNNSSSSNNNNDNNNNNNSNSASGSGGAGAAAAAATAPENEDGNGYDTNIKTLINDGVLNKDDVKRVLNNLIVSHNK
# Assay: PBM E-score (8-mer binding enrichment) (E-score (-0.5 to 0.5)); higher = stronger / more preferred TF binding; most listed sequences are background and not binding sites
# Details: protein concentration: 200 nM; construct: GST-full length
# In short: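 Bound GST-tagged yeast transcription factors, applied at about 100-200 nM to double-stranded universal all-10-mer Agilent arrays, were detected with fluorescent anti-GST. Scans were normalised with masliner. A modified Wilcoxon-Mann-Whitney statistic, the E-score, was assigned to each ungapped eight-base word pooled with its reverse complement by the Universal PBM Analysis Suite.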
row,Sequence,PBM E-score
1,ACGCAAGC,0.0762
2,AGAACCAT,0.0806
3,TAATTTAA,0.175
4,GATCTGCA,-0.113
5,CATAGTCC,-0.0494
6,ACGCCGCT,-0.0984
7,CACCGTGA,-0.252
8,ACCCGCAG,-0.189
9,AAACCTAC,0.127
10,AACATATT,0.197
11,GGTCATTA,-0.162
12,ATGATCAC,-0.0679
13,AGAGTACC,0.043
14,ACTAAGGG,-0.193
15,AAGCCGCC,-0.147
16,AGCAGTTA,-0.052
17,AATACCTC,0.132
18,CTTCTCTA,-0.0751
19,TTATTGAA,0.125
20,CGGTGGCA,-0.354
21,AGATGTGC,-0.0176
22,AAAACCAT,-0.116

row,Sequence,PBM E-score
1,CGACCTTA,-0.165
2,AAGTTCTA,-0.111
3,AATAGGTA,0.38
4,CCGCCTCC,-0.222
5,AGCACCAG,-0.0574
6,GCACCACA,-0.0381
7,TAACGAGA,0.123
8,CATTGAAA,0.169
9,CCCATGGA,-0.187
10,ATACATGA,0.363
11,CGCCAAGA,-0.271
12,ACCTGCAA,0.15
13,CAATTCTA,0.0194
14,AGCTGTAC,-0.165
15,ATTCATGG,0.025
16,GCCGCTAA,-0.0753
17,CTATTGTA,0.183
18,AAAGGGAG,-0.128
19,ACCTAGGA,-0.0478
20,GCCGGCAA,-0.177
21,GAGTCACC,-0.34
22,CGCTTGTA,0.235

row,Sequence,PBM E-score
1,CCGATGTC,-0.075
2,CAGCTAAC,-0.0689
3,TCATCTCA,-0.1
4,GGAATGCC,-0.0541
5,AACTTACT,0.046
6,ACGCCAGG,0.18
7,ATATCTTA,0.0935
8,ACACTGGG,0.0273
9,AATACTCT,0.107
10,ATCCCTCA,-0.18
11,AGTGCGAA,-0.0759
12,CTAGCCAA,-0.0892
13,CATTTGCG,0.0635
14,ATTACGGC,-0.0851
15,GTTGGAAA,-0.0146
16,GCTCATTA,-0.0195
17,CGTACCCA,-0.117
18,TACGTTAA,0.252
19,AGAATCTC,0.073
20,ATAATTTA,0.144
21,ACGTCCAG,-0.0677
22,AGAAGACT,-0.149

row,Sequence,PBM E-score
1,GTGCTATA,-0.00959
2,CTTCAAGC,-0.0397
3,GAGCCCTC,-0.118
4,ACTGCAGG,0.0605
5,GGGTTCCA,-0.273
6,ACGATTGA,0.0344
7,CCACCCGA,-0.197
8,CGACCGTA,-0.141
9,CAGAGTTA,-0.102
10,ATACCTTG,0.126
11,AAACAGAG,-0.0785
12,CCGGCCCG,-0.248
13,GGTATACA,0.115
14,ATAGGAAC,0.456
15,AGGCATAT,0.207
16,AGAATTAG,-0.0254
17,ATGCCTAC,0.424
18,GTTTGTCA,0.0429
19,ATAATCTC,-0.0787
20,TGAAGCAA,-0.0324
21,CCTGACTA,0.116
22,ATGCGAAC,0.0292

row,Sequence,PBM E-score
1,GGTCTTTA,0.115
2,CATTTACG,0.201
3,AACCTGCT,-0.132
4,CCGCGCTC,-0.153
5,AATCGAGA,-0.129
6,ATCGTTAG,-0.0878
7,GCTTCTTA,0.0229
8,GAATCGCA,-0.2
9,CGTAGCGC,-0.12
10,AATAGCAA,0.0944
11,CGTAGTAG,0.0742
12,ATTTCGAG,-0.00637
13,ATACGGAG,-0.127
14,ATGCGTTA,0.252
15,GCCGTAGA,-0.096
16,GGTAAGTA,0.295
17,ATCCCGAC,-0.104
18,ATTGGTAG,-0.037
19,AAAAGCAA,0.195
20,AGGGGCAG,-0.234
21,ACAAGACA,0.207
22,ACCGATAC,-0.0799
